No constants are given. Whether binding was seen depends on the method and setting. Some results given as binding are weak or reduced against the parent protein; the word gives no strength.

Amino acid sequences for entries named in this document (tags omitted). A change or cut given only in a name is not applied to a line headed by its entry. Residues count along the entry.
UniProt P02769, residues 25-607: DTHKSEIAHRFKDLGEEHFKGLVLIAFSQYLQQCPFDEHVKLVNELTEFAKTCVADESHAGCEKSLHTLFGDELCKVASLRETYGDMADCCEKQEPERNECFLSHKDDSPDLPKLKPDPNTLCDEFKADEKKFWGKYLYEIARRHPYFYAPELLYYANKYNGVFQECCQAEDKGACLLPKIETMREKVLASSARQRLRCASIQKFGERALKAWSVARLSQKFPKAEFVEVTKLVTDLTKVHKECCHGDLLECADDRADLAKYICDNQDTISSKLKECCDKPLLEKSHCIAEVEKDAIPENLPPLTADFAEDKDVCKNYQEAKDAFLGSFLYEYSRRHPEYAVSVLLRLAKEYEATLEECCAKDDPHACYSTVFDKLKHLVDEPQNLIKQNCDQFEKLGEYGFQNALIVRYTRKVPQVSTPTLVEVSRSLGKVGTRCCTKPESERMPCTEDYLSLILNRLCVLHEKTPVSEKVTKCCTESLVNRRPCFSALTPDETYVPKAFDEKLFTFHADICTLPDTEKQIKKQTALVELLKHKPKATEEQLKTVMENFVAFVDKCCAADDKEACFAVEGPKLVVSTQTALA
UniProt P03744: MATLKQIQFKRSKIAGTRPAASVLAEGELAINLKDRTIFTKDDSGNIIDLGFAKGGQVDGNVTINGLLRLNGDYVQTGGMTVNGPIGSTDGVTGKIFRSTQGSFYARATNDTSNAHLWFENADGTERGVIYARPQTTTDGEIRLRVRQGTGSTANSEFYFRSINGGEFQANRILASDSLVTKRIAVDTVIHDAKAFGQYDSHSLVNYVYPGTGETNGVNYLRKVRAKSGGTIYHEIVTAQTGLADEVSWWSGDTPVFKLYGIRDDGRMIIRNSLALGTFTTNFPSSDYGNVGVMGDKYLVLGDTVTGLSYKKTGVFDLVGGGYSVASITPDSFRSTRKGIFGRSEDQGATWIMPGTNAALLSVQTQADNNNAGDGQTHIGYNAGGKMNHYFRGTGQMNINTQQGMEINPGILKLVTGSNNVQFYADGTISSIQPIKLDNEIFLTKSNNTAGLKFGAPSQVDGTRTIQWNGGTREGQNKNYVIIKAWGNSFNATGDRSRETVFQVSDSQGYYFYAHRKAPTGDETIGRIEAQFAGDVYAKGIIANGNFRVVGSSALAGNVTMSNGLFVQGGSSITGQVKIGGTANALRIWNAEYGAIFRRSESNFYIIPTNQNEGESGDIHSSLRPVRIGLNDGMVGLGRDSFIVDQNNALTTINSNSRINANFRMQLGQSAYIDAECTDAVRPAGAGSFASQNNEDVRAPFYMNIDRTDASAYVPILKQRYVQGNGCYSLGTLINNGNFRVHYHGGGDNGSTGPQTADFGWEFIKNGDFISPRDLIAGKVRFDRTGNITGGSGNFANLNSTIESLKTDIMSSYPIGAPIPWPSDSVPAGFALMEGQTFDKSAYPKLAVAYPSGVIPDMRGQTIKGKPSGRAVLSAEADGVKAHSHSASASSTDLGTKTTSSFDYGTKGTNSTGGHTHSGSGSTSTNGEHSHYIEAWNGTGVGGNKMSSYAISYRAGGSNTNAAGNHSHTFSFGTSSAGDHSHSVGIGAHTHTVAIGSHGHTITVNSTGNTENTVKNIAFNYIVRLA
Phage T4 LTF needle (gp37; amino acids 799–1026), wild type: residues 799-1026 of P03744

Assay [1] concerns the target BSA (UniProt P02769). Put plainly: ELISA; gp37 trimers coated (100 ng/well) overnight at 4°C, casein block, OmpC added (various molar ratios; gp37:OmpC 1:1 for the mutants), 37°C 2 hr, PBS-T washes, bound OmpC detected with mouse anti-OmpC sera and HRP anti-mouse IgG; both purified. (In general: In an ELISA, binding on a coated surface is turned into a signal by an enzyme label.)

The target in assay [2] is Phage T4 LTF needle (gp37; amino acids 799–1026), wild type (bacteriophage T4) (UniProt P03744). The assay is described as above.
The target of assay [3] is gp37 needle (799–1026) G938A (bacteriophage T4) (UniProt P03744). Described as above.
The target in assay [4] is gp37 needle (799–1026) I933A (bacteriophage T4) (UniProt P03744). Described as above.
The target in assay [5] is gp37 needle (799–1026) N937A (bacteriophage T4) (UniProt P03744). Described as above.
Assay [6] concerns the target gp37 needle (799–1026) I951A (bacteriophage T4) (UniProt P03744). Put plainly: condition: OmpC added at a gp37:OmpC molar ratio of 1:1 (100 ng gp37/well); ELISA; gp37 trimers coated (100 ng/well) overnight at 4°C, casein block, OmpC added (various molar ratios; gp37:OmpC 1:1 for the mutants), 37°C 2 hr, PBS-T washes, bound OmpC detected with mouse anti-OmpC sera and HRP anti-mouse IgG; both purified.

Assay [7] deals with gp37 needle (799–1026) K945A (bacteriophage T4) (UniProt P03744). The description is as above.
In assay [8] the target is gp37 needle (799–1026) Y953A (bacteriophage T4) (UniProt P03744). Described as above.

B1: recombinant OmpC trimer (outer membrane protein C) (protein, UniProt P06996 22-367)
chain: AEVYNKDGNKLDLYGKVDGLHYFSDNKDVDGDQTYMRLGFKGETQVTDQLTGYGQWEYQIQGNSAENENNSWTRVAFAGLKFQDVGSFDYGRNYGVVYDVTSWTDVLPEFGGDTYGSDNFMQQRGNGFATYRNTDFFGLVDGLNFAVQYQGKNGNPSGEGFTSGVTNNGRDALRQNGDGVGGSITYDYEGFGIGGAISSSKRTDAQNTAAYIGNGDRAETYTGGLKYDANNIYLAAQYTQTYNATRVGSLGWANKAQNFEAVAQYQFDFGLRPSLAYLQSKGKNLGRGYDDEDILKYVDVGATYYFNKNMSTYVDYKINLLDDNQFTRDAGINTDNIVALGLVYQF
Regarding B1, the binding result in assay [1] is on record as “no binding”; in assay [2], “binds”; in assay [3] it was “binds”; in assay [4] it was “binds”; in assay [5], “binds”; in assay [6], “no binding”. For the same molecule, the binding result in assay [7] and in assay [8] was “no binding” each time.

For the origin of these results see PMC6957217.
